Here are results for 20 molecules from publication PMC9911399, “Two distinct binding modes provide the RNA-binding protein RbFox with extraordinary sequence specificity”.

The labels stand for the following.
B1: AUAUAGU (DNA:RNA)
RNA: GGGAGACCGGAAUUCAGAUUGUCCAUAUAGUUUAAAUCCCGUCGUAGCCACCA
DNA 1: CAATCTGAATTCCGGTCTCCC
DNA 2: TGGTGGCTACGACGGGATT
B2: GGGCUAC (DNA:RNA)
RNA: GGGAGACCGGAAUUCAGAUUGUCCGGGCUACUUAAAUCCCGUCGUAGCCACCA
DNA 1: CAATCTGAATTCCGGTCTCCC
DNA 2: TGGTGGCTACGACGGGATT
B3: AGACAGC (DNA:RNA)
RNA: B1 RNA with U26G, U28C, U31C
DNA 1: CAATCTGAATTCCGGTCTCCC
DNA 2: TGGTGGCTACGACGGGATT
B4: CAACCGA (DNA:RNA)
RNA: B1 RNA with A25C, U26A, U28C, A29C, U31A
DNA 1: CAATCTGAATTCCGGTCTCCC
DNA 2: TGGTGGCTACGACGGGATT
B5: ACCUAAG (DNA:RNA)
RNA: B1 RNA with U26C, A27C, G30A, U31G
DNA 1: CAATCTGAATTCCGGTCTCCC
DNA 2: TGGTGGCTACGACGGGATT
B6: GUCUUCC (DNA:RNA)
RNA: B2 RNA with G26U, G27C, C28U, A30C
DNA 1: CAATCTGAATTCCGGTCTCCC
DNA 2: TGGTGGCTACGACGGGATT
B7: UAUAUAA (DNA:RNA)
RNA: B2 RNA with G25U, G26A, G27U, C28A, C31A
DNA 1: CAATCTGAATTCCGGTCTCCC
DNA 2: TGGTGGCTACGACGGGATT
B8: AUAGGUC (DNA:RNA)
RNA: B1 RNA with U28G, A29G, G30U, U31C
DNA 1: CAATCTGAATTCCGGTCTCCC
DNA 2: TGGTGGCTACGACGGGATT
B9: AGUUCAU (DNA:RNA)
RNA: B1 RNA with U26G, A27U, A29C, G30A
DNA 1: CAATCTGAATTCCGGTCTCCC
DNA 2: TGGTGGCTACGACGGGATT
B10: CAAAAAG (DNA:RNA)
RNA: B1 RNA with A25C, U26A, U28A, G30A, U31G
DNA 1: CAATCTGAATTCCGGTCTCCC
DNA 2: TGGTGGCTACGACGGGATT
B11: CUUCUCU (DNA:RNA)
RNA: B1 RNA with A25C, A27U, U28C, A29U, G30C
DNA 1: CAATCTGAATTCCGGTCTCCC
DNA 2: TGGTGGCTACGACGGGATT
B12: UGUUGAU (DNA:RNA)
RNA: B1 RNA with A25U, U26G, A27U, A29G, G30A
DNA 1: CAATCTGAATTCCGGTCTCCC
DNA 2: TGGTGGCTACGACGGGATT
B13: AAGGGCU (DNA:RNA)
RNA: B1 RNA with U26A, A27G, U28G, A29G, G30C
DNA 1: CAATCTGAATTCCGGTCTCCC
DNA 2: TGGTGGCTACGACGGGATT
B14: CGUCCAA (DNA:RNA)
RNA: B2 RNA with G25C, G27U, U29C, C31A
DNA 1: CAATCTGAATTCCGGTCTCCC
DNA 2: TGGTGGCTACGACGGGATT
B15: CUGGAAC (DNA:RNA)
RNA: B2 RNA with G25C, G26U, C28G, U29A
DNA 1: CAATCTGAATTCCGGTCTCCC
DNA 2: TGGTGGCTACGACGGGATT
B16: UUUUUUG (DNA:RNA)
RNA: B1 RNA with A25U, A27U, A29U, G30U, U31G
DNA 1: CAATCTGAATTCCGGTCTCCC
DNA 2: TGGTGGCTACGACGGGATT
B17: GCGCACU (DNA:RNA)
RNA: B2 RNA with G26C, U29A, A30C, C31U
DNA 1: CAATCTGAATTCCGGTCTCCC
DNA 2: TGGTGGCTACGACGGGATT
B18: CAACCAU (DNA:RNA)
RNA: B1 RNA with A25C, U26A, U28C, A29C, G30A
DNA 1: CAATCTGAATTCCGGTCTCCC
DNA 2: TGGTGGCTACGACGGGATT
B19: GCAUUUG (DNA:RNA)
RNA: B1 RNA with A25G, U26C, A29U, G30U, U31G
DNA 1: CAATCTGAATTCCGGTCTCCC
DNA 2: TGGTGGCTACGACGGGATT
B20: GAACCUU (DNA:RNA)
RNA: B1 RNA with A25G, U26A, U28C, A29C, G30U
DNA 1: CAATCTGAATTCCGGTCTCCC
DNA 2: TGGTGGCTACGACGGGATT

Where a chain is given by its changes, count along the chain named. The list shows a part of the results.

The target of this assay is T1, RBFOX1 RRM RbFoxmut (Fox-RRM*) (Homo sapiens, UniProt Q9NWB1 109-208, R118D;E147R;N151S;E152T).
T1 sequence: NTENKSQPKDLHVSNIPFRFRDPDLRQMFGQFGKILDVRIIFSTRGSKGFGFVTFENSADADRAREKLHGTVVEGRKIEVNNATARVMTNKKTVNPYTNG
The experiment in a line: EMSA; HiTS-Eq, 1 nM pool, 10 min; buffer printed only for the single-RNA assays: 10 mM Tris pH 7.5, 150 mM NaCl, 3.4 mM EDTA, 0.001% NP-40, 30 C. The note with it: tags: His6 N-terminal (pET28a); label: 5' 32P. The essentials: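 Purified wild-type or mutant RbFox RRM at increasing concentrations was equilibrated with 1 nM of 5′-radiolabelled RNA carrying 7 randomized nucleotides for 10 min in 50 µL. Unbound RNA was separated by 8% native PAGE and sequenced. Relative association constants came from read-count changes of each RNA species compared with the control reaction, normalised to the cognate motif.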
In the case of B1, the binding signal was 0.108 KA relative to UGCAUGU. Take B2: the binding signal is 0.0681 KA relative to UGCAUGU. On to B3, for which the binding signal was 0.0612 KA relative to UGCAUGU. Turning to B4, the binding signal was 0.0449 KA relative to UGCAUGU.

On to B5, for which the binding signal was 0.11 KA relative to UGCAUGU.

B6: the binding signal was 0.125 KA relative to UGCAUGU. For the molecule B7, the binding signal is 0.0485 KA relative to UGCAUGU. Next, B8: 0.106 KA relative to UGCAUGU; B9: 0.109 KA relative to UGCAUGU.

With B10, the binding signal was 0.068 KA relative to UGCAUGU. Under B11 stands 0.0664 KA relative to UGCAUGU; under B12, 0.146 KA relative to UGCAUGU.

In the case of B13, the binding signal is 0.0699 KA relative to UGCAUGU. B14: the binding signal is 0.0913 KA relative to UGCAUGU. As to B15, the binding signal was 0.0803 KA relative to UGCAUGU. For the molecule B16, the binding signal was 0.0953 KA relative to UGCAUGU. Under B17 stands 0.087 KA relative to UGCAUGU; under B18, 0.0957 KA relative to UGCAUGU; under B19, 0.138 KA relative to UGCAUGU. Next, B20: 0.119 KA relative to UGCAUGU.
